According to the BET-seq Pho4 binding data (Le et al. 2018):
The list shows a part of the results. The energies were worked out here from pooled read counts, against the library average; single values are noisy.

Target: T1, Pho4 (S. cerevisiae) (UniProt P07270)
T1 sequence: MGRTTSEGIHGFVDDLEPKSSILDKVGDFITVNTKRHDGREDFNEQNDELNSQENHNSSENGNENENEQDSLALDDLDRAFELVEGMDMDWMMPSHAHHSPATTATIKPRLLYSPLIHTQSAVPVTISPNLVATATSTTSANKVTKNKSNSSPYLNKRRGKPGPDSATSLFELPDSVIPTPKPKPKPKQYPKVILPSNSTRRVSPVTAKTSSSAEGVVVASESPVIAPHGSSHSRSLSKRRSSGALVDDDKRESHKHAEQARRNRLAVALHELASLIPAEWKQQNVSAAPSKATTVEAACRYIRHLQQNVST
Experiment: relative binding free energy (BET-seq); higher = weaker binding
Conditions: reference: library average

Relative binding free energy, -0.03 kcal/mol:
AGGGTCACGTGGGTTG
TGGGACACGTGCTTAT
CTTTCCACGTGGGGGT
GTAGGCACGTGGTGGA
CGGGGCACGTGTACTG
CTAGGCACGTGTGTGA
TGTGTCACGTGGACGC
AGTAGCACGTGCAGGA
TATGGCACGTGGATGC

Relative binding free energy, -0.17 kcal/mol:
CATGGCACGTGCGGGA
TGCGTCACGTGGGTCA
AATTGCACGTGCGGGA
TAAGGCACGTGTCATT
TGAACCACGTGTTGTG
CTCGGCACGTGGGTTA
AGGCGCACGTGTATTG
CTTGGCACGTGTTGTC

Relative binding free energy, 0.27 kcal/mol:
AGATTCACGTGAGGCG
TAATTCACGTGGGGAT
TGAGTCACGTGAATTA

Relative binding free energy, 0.39 kcal/mol:
TTTATCACGTGAATTT

Relative binding free energy, 0.21 kcal/mol:
TTAGTCACGTGGAAAA

Relative binding free energy, 0.08 kcal/mol:
TAAAGCACGTGGAAGG
GGTTGCACGTGGAACT

Relative binding free energy, -0.02 kcal/mol:
CATTGCACGTGGAGTG

Relative binding free energy, -0.24 kcal/mol:
GCTGGCACGTGGGGGA

Relative binding free energy, 0.32 kcal/mol:
GAGGACACGTGTCGGT
AGTCACACGTGGAAGT

Relative binding free energy, 0.12 kcal/mol:
TTAATCACGTGGTACA
AGTACCACGTGAGTGT
ATTTTCACGTGTATAA
ATGCGCACGTGAGAGT

Relative binding free energy, -0.06 kcal/mol:
AAAGGCACGTGTATGA
TGTTGCACGTGCTGCG
CGGGGCACGTGCGGTA
GGTATCACGTGGGCTA
TATGCCACGTGTGTTA

Relative binding free energy, -0.09 kcal/mol:
AGCCACACGTGGGGTG
GTAGGCACGTGCAAGG
AGAGCCACGTGTAGGT

Relative binding free energy, -0.23 kcal/mol:
AATGGCACGTGGTTTC
ACAGGCACGTGGGGTC
TGGAGCACGTGGCGTT
TGCACCACGTGGTGTG
AGTGGCACGTGGTGTA

Relative binding free energy, 0.02 kcal/mol:
GGGGACACGTGGGCAA
GGAAACACGTGGGTTA
ATCGGCACGTGATTGG
CGCGGCACGTGTCAGG

Relative binding free energy, 0.23 kcal/mol:
ATATTCACGTGATGAG

Relative binding free energy, 0.31 kcal/mol:
AGGAACACGTGAGTGT
AGATTCACGTGGAGGC

Relative binding free energy, 0.29 kcal/mol:
GGTTTCACGTGCTGCT
TGGTACACGTGAAGTA

Relative binding free energy, -0.12 kcal/mol:
GGGAACACGTGGTGGC
ACTGGCACGTGGGTTT
GGGCCCACGTGGGAGT

Relative binding free energy, 0.03 kcal/mol:
TTCTGCACGTGGAGCG
TGAATCACGTGTATAT
TGGTACACGTGGTCGC
GTGGGCACGTGAAGAA
AGTGCCACGTGTGTTT

Relative binding free energy, 0.18 kcal/mol:
TTTATCACGTGTATTT
TATTTCACGTGTTGCT
AGCGACACGTGAGGGG

Relative binding free energy, 0.42 kcal/mol:
GGAGTCACGTGAGGTA

Relative binding free energy, 0.04 kcal/mol:
GTGAGCACGTGTAAGA
TAGTGCACGTGGATGT
GGTTACACGTGTGCGC
TATGGCACGTGATAGT

Relative binding free energy, 0.15 kcal/mol:
AGGGTCACGTGTGGGA
ATGGGCACGTGAGACA
CTATTCACGTGGGAGG
GAAGTCACGTGTGTTC
ATTTACACGTGTATTT
AGGATCACGTGGACGG
AGGGGCACGTGAGTGG
TTTTACACGTGTATCA

Relative binding free energy, 0.06 kcal/mol:
TTCGTCACGTGGCGGG
GTGAACACGTGCTCGG
TTGGTCACGTGCCGGA
GCTGGCACGTGGAGGT
AAATACACGTGTGGGA
GACGTCACGTGGATGT

Relative binding free energy, 0.25 kcal/mol:
ATGTGCACGTGAGTAG
GGTGACACGTGAGGAA

Relative binding free energy, 0.36 kcal/mol:
AGCTTCACGTGAGTTG

Relative binding free energy, 0.01 kcal/mol:
TATTACACGTGTTAGT
GTGTACACGTGCGAGT
TGAACCACGTGGTAGT
TTAAACACGTGTGGGC
GGTAGCACGTGTGTTA
TGGTGCACGTGGAAAG
GTGAACACGTGTAGTA
GTAGACACGTGTGTTA
AGCTGCACGTGATTGT
TACGGCACGTGTTTTA

Relative binding free energy, 0.38 kcal/mol:
GTTTTCACGTGTGCGA

Relative binding free energy, 0.33 kcal/mol:
TTATTCACGTGGTCCG
TAATTCACGTGTACGG

Relative binding free energy, -0.01 kcal/mol:
GGTTGCACGTGCCAGG
TTGAGCACGTGTGCGC
TAACGCACGTGTTTGA
CGATGCACGTGTGTAG
TTTCGCACGTGTAGCT
AGGATCACGTGGGAGC
CACGGCACGTGTGGGA
TAAGGCACGTGTAGTA
CTTCGCACGTGTTGGT

Relative binding free energy, 0.07 kcal/mol:
AGGAACACGTGTAGTG
GTAATCACGTGGGGTT
TGGCGCACGTGTGGAT
GGTGTCACGTGGCTTT

Relative binding free energy, -0.18 kcal/mol:
GCCTGCACGTGGGGTG
GGTGGCACGTGCTGAG

Relative binding free energy, 0.54 kcal/mol:
GTTTTCACGTGATCTT

Relative binding free energy, 0.44 kcal/mol:
GAGTTCACGTGTGGAA
TTTTACACGTGAAAAT

Relative binding free energy, 0.05 kcal/mol:
ATGCGCACGTGAGGCG
ATTCTCACGTGGGTAA
GAATGCACGTGGCGTA
GATTGCACGTGACGTT
TGGGTCACGTGTGCGA
CAAGGCACGTGTGTCG
GTTGACACGTGTGTTG

Relative binding free energy, -0.13 kcal/mol:
TGAGGCACGTGTGCAT
CGGGGCACGTGTTAGA
ATTGACACGTGGTGTG

Relative binding free energy, -0.05 kcal/mol:
ATAGGCACGTGTGGCG
AGGTACACGTGGGTTT
TAGTGCACGTGCATTA

Relative binding free energy, -0.1 kcal/mol:
ACGTGCACGTGTTGAG
GTTACCACGTGGTATG

Relative binding free energy, 0.2 kcal/mol:
GATGGCACGTGTAGAT

Relative binding free energy, 0.26 kcal/mol:
TCTGTCACGTGAGTGA
CGGTGCACGTGAAGTT
TGTGGCACGTGAAGTG

Relative binding free energy, -0.07 kcal/mol:
GTTGACACGTGGTCGT
TATTACACGTGGGCTA
CATGGCACGTGTGGAG
AGTCACACGTGCGGGG
TAGGGCACGTGTTCGG
AAATGCACGTGTTTTA
GCAGGCACGTGTATGT
TTTTGCACGTGGCTCG

Relative binding free energy, 0.17 kcal/mol:
GATGTCACGTGCGGCG
TCATTCACGTGTGTGT
TTTAACACGTGATTGC

Relative binding free energy, 0.19 kcal/mol:
TTTATCACGTGTTATG
GATATCACGTGTTGAG

Relative binding free energy, -0.22 kcal/mol:
AGGTGCACGTGGGATA
AATGGCACGTGTGGCT
TGTGCCACGTGGCGTT

Relative binding free energy, 0.13 kcal/mol:
ATGCTCACGTGTGCGG
ATTTGCACGTGAGAGG
GAGTCCACGTGTGTTT
ACTGTCACGTGTGTGC
CAATTCACGTGGGAGT
TTGGTCACGTGTTACC
ACTGTCACGTGTAATT

Relative binding free energy, 0.14 kcal/mol:
ATAGTCACGTGTGTGT
TATTTCACGTGCTATG
GATAGCACGTGATGGG
TGGAGCACGTGTAGAT

Relative binding free energy, 0.11 kcal/mol:
TCTGTCACGTGTAAGA
GTTAGCACGTGTACAG
CGTTGCACGTGTCGTA

Relative binding free energy, 0.1 kcal/mol:
CGCGTCACGTGTGTTT

Relative binding free energy, -0.21 kcal/mol:
GTTGCCACGTGGGTTA
GGTGCCACGTGGTGTG

Relative binding free energy, 0.09 kcal/mol:
ACTATCACGTGTTATG
GTATGCACGTGATGTA
GCTTACACGTGGATTG
TATATCACGTGTGGTC
TTCGGCACGTGATGTG
CTAATCACGTGGTTTG

Relative binding free energy, -0.19 kcal/mol:
ATAGGCACGTGCGGGG

Relative binding free energy, 0.3 kcal/mol:
GTGCTCACGTGGACGG
ACTTTCACGTGATGTA
AATTGCACGTGAGTTC

Relative binding free energy, 0.35 kcal/mol:
CATGTCACGTGAGGCG

Relative binding free energy, 0 kcal/mol:
TGCGGCACGTGTGTTC
TTTAGCACGTGCGTCT
GGTCGCACGTGGAGTT
CGTGACACGTGTTTGT
TTTAACACGTGTTTGG
CAGGGCACGTGACAGG

Relative binding free energy, 0.52 kcal/mol:
AGTTTCACGTGATAGC

Relative binding free energy, -0.04 kcal/mol:
TTCGTCACGTGTGCGG
GTATGCACGTGGTAGC
TTTGGCACGTGTTTGG
TGGGGCACGTGTCGAG
TTAAACACGTGCATGG

Relative binding free energy, 0.16 kcal/mol:
TAGGCCACGTGAGAGG
GTTTCCACGTGGGAAT
TTGAACACGTGAGTAT
GTTTGCACGTGTGTAT
AGTCTCACGTGGTAAG
CCTTTCACGTGGGTGG

Relative binding free energy, -0.14 kcal/mol:
ATGTGCACGTGTTACA
GGTAGCACGTGTGGCA
CGTGACACGTGGTGTA
AAGTGCACGTGTACGG

Relative binding free energy, -0.16 kcal/mol:
TGGTGCACGTGGTCCG
AGTGGCACGTGGATTT
GTACGCACGTGGCGGT
TTTGCCACGTGTCTGT
TAGGGCACGTGTAGTA

Relative binding free energy, -0.08 kcal/mol:
GGCGGCACGTGGGGTA
TTTCGCACGTGTATAT
GTTAACACGTGGGTGT
AGGGGCACGTGCGATC

Relative binding free energy, -0.15 kcal/mol:
GTAGGCACGTGGTCGG
AGGGGCACGTGTTTCA

Relative binding free energy, -0.11 kcal/mol:
GGTGGCACGTGGCTCG
AGCTGCACGTGGTATT
AGTTACACGTGGGGTG

Relative binding free energy, -0.29 kcal/mol:
TGTGGCACGTGGCTAT
CTGAGCACGTGGGGTT

Relative binding free energy, 0.22 kcal/mol:
TGTTTCACGTGGATTG

Relative binding free energy, 0.4 kcal/mol:
GGGTTCACGTGAATTG

Relative binding free energy, 0.28 kcal/mol:
CTGTTCACGTGTTCTG
ATCTGCACGTGAGGGT
GGGGTCACGTGTGACG
TAGTTCACGTGCAAGT

Relative binding free energy, 0.24 kcal/mol:
CATTTCACGTGTTTGG
GAACTCACGTGGGGTT
GAGTTCACGTGTTCAG
TTTTTCACGTGGTATC
GAGTTCACGTGGGGAT
